# Some of the results follow. At the low end of the ranking the order means little.
# Molecular target: SIX1 homeodomain (reference allele) (UniProt Q15475)
# Experiment: universal protein binding microarray
# Conditions: Universal all-10-mer PBM (8x60K, AMADID 030236), 300 nM GST-tagged protein, Alexa Fluor 488 anti-GST; buffer, salt, pH and temperature not stated; high values mean tight binding; most listed sequences are background and not binding sites; double strand, one strand shown
row,Sequence,binding signal [E-score]
1,ATCAGGTG,0.25
2,CTTTTATA,0.0197
3,TAGGCCTA,0.00183
4,ACACTATA,0.132
5,CACCAATG,0.00865
6,ACTCTGCG,-0.0297
7,ACACAGCG,-0.046
8,ACCCGAGC,0.11
9,ACAGAACG,-0.0976
10,AGCCTCCT,-0.0223
11,CGCGGACA,-0.162
12,GGAGAGCC,0.0514
13,CCGGAGTA,0.089
14,CGCCGCCA,-0.148
15,AAAGTTGT,-0.247
16,AAGTCCTA,-0.179
17,CGAATCGA,0.182
18,TTCCCCAA,-0.0359
19,CATGGGAG,0.0691
20,CAAAGCAA,-0.197
21,CCGTGCAC,0.00664
22,CTAAGGAG,0.0137

row,Sequence,binding signal [E-score]
1,AAAAGCTC,-0.179
2,ATCTCTTA,0.208
3,ACAGCAAG,0.0276
4,CATCCGCC,0.237
5,CGCGCCAG,-0.114
6,AAGGGGAC,-0.0872
7,GTTGGTTA,0.0201
8,ACGCACCA,-0.122
9,ACTAATAA,-0.068
10,CGTTCATA,-0.0851
11,CATCTTTC,-0.126
12,TCTCATCA,0.0739
13,GTACATTA,0.00899
14,ATTCATTA,0.0361
15,ACGATAGG,0.269
16,ATGGAACA,-0.155
17,ACGCTATG,-0.0891
18,GTCTGATA,0.294
19,AGATATGG,0.335
20,GCCTTCAC,-0.205
21,AGACGTCC,-0.0986
22,CCGGCTCA,0.256

row,Sequence,binding signal [E-score]
1,GCTGAAGA,-0.189
2,AAATTCCC,-0.239
3,ATTCAGGC,0.0935
4,CATTGGGA,-0.15
5,ACAAAGGG,-0.157
6,ACACCGGA,0.364
7,AGCGCGAT,0.166
8,GACCAGGA,0.107
9,TACTTGGA,0.091
10,ACCGACCT,-0.00057
11,AGGTGATC,0.359
12,CGAGTGCA,-0.11
13,CAACATGC,-0.177
14,AAGATGCC,0.0158
15,AAAAGACC,-0.327
16,ACTTGCAT,-0.182
17,CTGCTCAA,-0.176
18,CATATAAA,0.0492
19,GCGATCGC,0.378
20,AGAGTGGG,-0.0427
21,AGTTCACC,-0.0047
22,TCTGTCAA,-0.111

row,Sequence,binding signal [E-score]
1,GGACGGCA,-0.145
2,GCATCCAA,-0.0517
3,GGACCGAA,-0.291
4,CTTTCTTA,-0.157
5,ACTAAACT,-0.23
6,GACCACTC,-0.0612
7,GTCTGTTA,-0.0158
8,GGGTTGTA,0.162
9,GTCGCGTA,-0.056
10,AAAATTCG,-0.139
11,CACCCTCG,0.0954
12,AACTCAGT,-0.191
13,AATCTAAG,-0.0701
14,CAAATGAA,-0.146
15,CGACGTTC,-0.238
16,GTTGAAGA,-0.0562
17,ACCTCTCG,-0.0261
18,TGTAAGAA,0.029
19,CCGGGCGC,-0.134
20,AATGCCAC,-0.137
21,AGGTCCAA,-0.0829
22,TACAATGA,0.139

row,Sequence,binding signal [E-score]
1,AGACATAT,0.243
2,TCGTGTAA,0.083
3,TAATCCGA,0.297
4,CAGCTACA,-0.0346
5,CTCAGATC,0.27
6,GGTTGCAC,-0.0339
7,ACCGAACA,0.047
8,CAGTAGTC,-0.109
9,AATAAAGC,-0.177
10,GCTGTTAA,-0.196
11,CAGTGACG,-0.122
12,ACTGACTG,-0.161
13,CTATATCA,0.412
14,ATCAACAT,0.225
15,AACATGCC,-0.223
16,ACAGGCCC,-0.201
17,ACCTACCA,-0.121
18,CGGGTTTC,0.132
19,GAAACTGA,-0.254
20,GCCTCAAC,-0.0586
21,AGGAACAT,-0.155
22,CTAGTTTA,-0.246
